Drawing on PubChem BioAssay (NCI), this text covers growth for one molecule.

One experiment deals with OVCAR-3 ovarian. Description: NCI-60 one-dose screen, 48 h (100 = growth as untreated, 0 = no growth, -100 = all killed). To be noted: 2.5 mM.
Another experiment deals with HS 578T breast. The description is as above. Conditions: 2.5 mM.

Some compounds were tested as several samples or in several runs, with calls that do not always agree.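 The endpoint reported here, percent growth, reads 100 for growth as untreated, 0 for no net growth and -100 for all cells dead.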 A number of entries come with more than one value. Only these are listed. The calls were made as follows: active = growth percent below 10; inactive = the rest. There may be further records. This drug was run again and again over the years, at the concentration stated with the values; one value stands for one run. Brackets with × count equal records among those shown.

Regarding `O=c1[nH]cc(F)c(=O)[nH]1`, the growth result is “active: -13.1, -21.5 (2×), -15.7 (3×), -10.7, -29.9, -19.8, -6.53, -40.7, -20.6, -21.2, -13.5 (2×), 1.16, -26 (2×), -3.82, -14.9, -38.4, -35.1, 3.68, -20.8, -9.69, -18.5, -4.33, 5.9, -27.7, -35.5, -3.24, 3.16, -34.4, -38.1, -21.3, -36.2, -21.7 (2×), 2.7, -4.94, 1.87, -3.07, -10.8, -24.9, -38.2 (2×), -23.9, -32.1 (2×), 0.524, -45.1, -16.9 (3×), -1.28, -29, -20.2, -19.5 (2×), 8.05, -18.1 (2×), -17.1, -43.7, -18.9, -12.4, -11.5, -6.2, 1.05, 0.742, -44, -40, -14.8 (2×), -36.1, -7.41, -38.9, -43.4, -27, 1.86, -32, 0.761, -28.5, -30.2, -12.9, -36.7, -40.8, -48.5, -31.5, -35, -28.8, -37.3, -9.15, 7.27, -4.96, -39.2, -18.2, -37.7, -14, -34.9, -47.7, -29.8, -5.35% and inactive: 32.6, 10.4, 12.7 (2×), 24.5, 15.5, 16.9, 30.5, 12.9, 20.7, 14.7, 10.3, 13.7, 11.7, 17.2, 22.9%” in the experiment with OVCAR-3 ovarian (runs of 1992); “active: -6.53, 9.79, -17.1, -10, -49.9, -29.2, 6.69, -26, 9.37, -34.5, -37.1, 3.4, -54.4, -30.2, -38, -4.95, -45.9, -31.2, -42.4, 0.764, -29.7, -37.8, -40.8, -19.7, -46.1, -9.86, -37.4, 5.16, -10.6, -46, 3.5, -36.5, -52.7% and inactive: 20.1, 16.1, 37.3, 30.8, 10.4, 10.6, 125, 91.4, 32.2, 18.7, 27.8, 17.6%” with OVCAR-3 ovarian (runs of 1993); “inactive: 10.8, 19.8, 46, 32, 13.9, 10.7, 19.9% and active: -0.879, -21.7, -9.35, -38.4, -35.6, -12.9, 1.83, -32.1, -29.4, 4.41, -17.8, -34.7, -43.3, 9.78, -94.4, -5.73, -32, 1.3, -68.7, -16.1, 6.29, 0.419, -0.885, -2.95, -28.9, -5.97%” with OVCAR-3 ovarian (runs of 1994); “active: 4.34, -15.5, -0.285, -18.2, -16.6, -13.4, -28.8, 8.69, -12.9, -30.3, -2.44, 1.87, -3.07, -1.67, 8.06, 7.98, -17, -2.4, 4.5, -22.1, -7.36, 6.95, -15.1, 0.708, -47.2, -22.2, -49, -8.49, -35, -11.7% and inactive: 38, 18.2, 46.5, 26.3, 12.3, 21.8%” with OVCAR-3 ovarian (runs of 1995); “inactive: 13.1, 19.8, 14.7, 25.4, 16.5, 36, 17.3, 13.8, 36.2, 12.2, 10.9, 15.2, 36.7, 37.4, 18.5% and active: 3.71, -18, 3.18, -26.5, -15.9, -11.1, -31.4, 5.29, -23, -29.1, -37.8, -23.8, -37.3, -12, -32.4, -15.6 (2×), -79.8, -37.5 (2×), -28.6, -20.1, -16.9, 0.233, 7.81, 8.25, 7.57, 8.05, -22.8, 3.52, -32.3, -28.9, -15.7, 1.49, 0.232, -26, -28.7, -25.9, -23.2, -32.8, -31.2%” in the experiment with OVCAR-3 ovarian (runs of 1996); “active: -12.2, -19.6, -32.5, -23.3, 4.68, -25, -61.4, -31.4 (2×), -8.04, -56.5, -7.09, 8.3, -26.5, 7.89, -34.6, -0.513, -31, -30.8, -3.27, -33.8, -34.7, -19.7, 1.5, -12.6, 0.0783, 3.57, -9.87, -9.97 (2×), -7.81, -7.66, -8.22, 3.19% and inactive: 31.4, 64, 20.8, 18.6, 17.5, 11.3, 21.3, 11.6, 20.7%” in the experiment on OVCAR-3 ovarian (runs of 1997). For the same molecule, the growth result in the experiment on OVCAR-3 ovarian (runs of 1998) is “active: -1.96, 5.7, -11.4, -0.368, 4.51, 9.34, -33.5, -31.9, 4.73, 7.42, -49.3, 3.86% and inactive: 22.5, 15.9, 23.2, 11.8, 29.2, 34.4, 22.4, 16.5, 32.5, 42.6%”; in the experiment with OVCAR-3 ovarian (runs of 1999), “active: -23.3, 3.53, -28.9, -73, 5.32, 1.76, -71, -94.9, -16.2, -23.7, -63.1, -73.8, -100, -44.1% and inactive: 19.5%, 12.8%”; in the experiment on OVCAR-3 ovarian (runs of 2000) it was “active: 8.9, -18.9, -59.8, -66.4%”; in the experiment with HS 578T breast (runs of 1993) it was “inactive: 15.5, 40, 36.4, 19, 19.6, 37, 87.8, 19.2, 28, 41.1, 30.2, 43.4, 57.5, 49.1, 27.8, 43.9, 23.9, 38.4, 33.2, 33.7, 23.7, 28.3, 34.5, 34.9, 68.7, 34.4, 39.5, 85.7, 62.5, 39.1, 31.3, 37.5, 26.3, 56.1, 58.1, 54.5% and active: -9.9, 1.67, 7.87, -2.77, -6.06, 3.65%”; in the experiment with HS 578T breast (runs of 1994), “inactive: 45.4, 32.7, 66.5, 45.7, 38.9, 21.2 (2×), 40.1, 26, 75.6, 42.2, 41.3, 68.9, 33.1, 46.8, 17.2, 48.4, 34.2, 38, 40.4, 44.3, 49.4, 31.8, 30.2, 91.1, 27.5, 33.7, 37.6, 47.5% and active: 8.79%, 3.29%, -8.16%”; in the experiment with HS 578T breast (runs of 1995), “inactive: 71, 34.2, 31.1, 22.8, 53.9, 17.3, 15.4, 58.2, 38.7, 35.7, 62.7, 70.5, 47.9, 23.7, 40.9, 61.4, 47.5, 33.6, 36.4, 54.2, 21.4, 24.1, 44.3, 43.7, 43.1, 54.7, 27.5, 25.1, 55, 25.3, 72.1, 30, 22.9, 41.1, 60.4, 43.8% and active: -32%”. In addition, the growth result with HS 578T breast (runs of 1996) is “inactive: 27.5, 53.1, 39.3, 38.9, 43.6 (2×), 35.8, 89.7, 26.9, 30.2, 39 (2×), 23, 46.9, 49.2, 43.2, 24.8, 56.5, 17.9, 16.7, 42.9, 71.4, 44, 34.4, 33.1, 53.9 (2×), 38.2, 29.5, 18.4, 20.9, 41.9 (2×), 17.1, 12.9, 40.3, 44.4, 63.1, 48.4, 56.6, 54.8, 68.6, 49.8, 26.2, 68.8, 34.8, 47.7% and active: -14.5%, -10.5%, -35.9%”; with HS 578T breast (runs of 1997), “inactive: 17.9, 34.6, 51.4, 45.8, 30, 36.7, 52.4, 17.4, 53.6, 10.1, 14, 33.5, 32.3, 39.4 (2×), 39.8, 23.9, 49.2, 21.1, 52.1, 42.4, 23.1, 49.3, 43.6, 44.6, 24.8, 10.6, 35.1, 36.1, 40.6, 24.1% and active: 9.73, -0.597, -31.1, 4.16, -6.51, -12.1, -21.3%”; in the experiment on HS 578T breast (runs of 1998) it was “inactive: 21.8, 50, 22.6, 42.8, 42.9, 35.9, 45.6, 37.5, 64.6, 65.5, 40.1, 47.4, 69.3% and active: -37.6, -12.8, -11.9, -28.5, -25.5, -17.1%”.
